Measurements from article PMC12820563, “FoxP3 forms a head-to-head dimer in vivo and stabilizes its multimerization on adjacent microsatellites”.
Some of the results follow.

molecular target: T1, MBP-FoxP1dN (Mus musculus, UniProt P58462 326-579); test: PD-seq (MBP pull-down with sequencing); 20 mM Tris-HCl pH 7.5, 100 mM NaCl, 1.5 mM MgCl2, 0.4 uM protein, 0.1 uM dsDNA library, 30 min, room temperature, amylose pull-down; high values mean tight binding; conditions: protein: recombinant; tags: His6-MBP; chain copies: 2; dsDNA, one strand shown
T1 sequence: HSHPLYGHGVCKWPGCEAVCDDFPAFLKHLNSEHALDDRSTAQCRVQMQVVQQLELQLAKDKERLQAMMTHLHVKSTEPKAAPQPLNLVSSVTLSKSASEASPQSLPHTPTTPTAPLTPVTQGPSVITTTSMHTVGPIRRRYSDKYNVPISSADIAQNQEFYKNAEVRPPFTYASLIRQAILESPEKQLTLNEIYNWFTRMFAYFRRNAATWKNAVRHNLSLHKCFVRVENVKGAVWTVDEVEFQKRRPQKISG
Summary of the method: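 A fragment of mouse FoxP3 or FoxP1 without its N-terminus, carrying a His6-MBP tag and produced in E. coli, was combined at 0.4 µM with a 0.1 µM degenerate double-stranded DNA library filled in with Klenow. The mixture sat for 30 min at room temperature in Tris pH 7.5 buffer containing NaCl and MgCl2. Protein–DNA complexes were captured on amylose resin, washed three times, and the DNA was freed with proteinase K, barcoded by PCR and sequenced on Illumina. Binding is expressed as reads-per-million enrichment of pull-down over input, with replicates pooled.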

Sequence	binding signal
GATGATTGTTCTCCCAGCTGATGAATTCGTCCTCTCGAGTAAACAAATTTTCCTAATCTTTCTGTTCAAGCGCCATCTAC	0.815 RPM ratio (pull-down/input)
GATGATTGTTCTCCCAGCTGATGAATTGTCTTCATCGAGTAAACAAATTTTCCTAATCTTTCTGTTCAAGCGCCATCTAC	1.02 RPM ratio (pull-down/input)
GATGATTGTTCTCCCAGCTGATGAATTTCTGAATTCGAGTAAACAAATTTTCCTAATCTTTCTGTTCAAGCGCCATCTAC	0.981 RPM ratio (pull-down/input)
GATGATTGTTCTCCCAGCTGATGAATTTACACACTCGAGTAAACAAATTTTCCTAATCTTTCTGTTCAAGCGCCATCTAC	1.34 RPM ratio (pull-down/input)
GATGATTGTTCTCCCAGCTGATGAATTGCATTGCTCGAGTAAACAAATTTTCCTAATCTTTCTGTTCAAGCGCCATCTAC	1.25 RPM ratio (pull-down/input)
GATGATTGTTCTCCCAGCTGATGAATTTGCCCGGTCGAGTAAACAAATTTTCCTAATCTTTCTGTTCAAGCGCCATCTAC	0.802 RPM ratio (pull-down/input)
GATGATTGTTCTCCCAGCTGATGAATTCATTATATCGAGTAAACAAATTTTCCTAATCTTTCTGTTCAAGCGCCATCTAC	0.999 RPM ratio (pull-down/input)
GATGATTGTTCTCCCAGCTGATGAATTTTTCCTCTCGAGTAAACAAATTTTCCTAATCTTTCTGTTCAAGCGCCATCTAC	0.972 RPM ratio (pull-down/input)
GATGATTGTTCTCCCAGCTGATGAATTTGCAACCTCGAGTAAACAAATTTTCCTAATCTTTCTGTTCAAGCGCCATCTAC	1.21 RPM ratio (pull-down/input)
GATGATTGTTCTCCCAGCTGATGAATTTATGTCATCGAGTAAACAAATTTTCCTAATCTTTCTGTTCAAGCGCCATCTAC	1.53 RPM ratio (pull-down/input)
GATGATTGTTCTCCCAGCTGATGAATTATGGCATTCGAGTAAACAAATTTTCCTAATCTTTCTGTTCAAGCGCCATCTAC	1.17 RPM ratio (pull-down/input)
GATGATTGTTCTCCCAGCTGATGAATTGGTCTAGTCGAGTAAACAAATTTTCCTAATCTTTCTGTTCAAGCGCCATCTAC	0.943 RPM ratio (pull-down/input)
GATGATTGTTCTCCCAGCTGATGAATTGGCATTATCGAGTAAACAAATTTTCCTAATCTTTCTGTTCAAGCGCCATCTAC	1.15 RPM ratio (pull-down/input)
GATGATTGTTCTCCCAGCTGATGAATTGTGACAATCGAGTAAACAAATTTTCCTAATCTTTCTGTTCAAGCGCCATCTAC	1.53 RPM ratio (pull-down/input)
GATGATTGTTCTCCCAGCTGATGAATTAGGGGTTTCGAGTAAACAAATTTTCCTAATCTTTCTGTTCAAGCGCCATCTAC	0.83 RPM ratio (pull-down/input)
GATGATTGTTCTCCCAGCTGATGAATTTTCCAAATCGAGTAAACAAATTTTCCTAATCTTTCTGTTCAAGCGCCATCTAC	0.999 RPM ratio (pull-down/input)
GATGATTGTTCTCCCAGCTGATGAATTGAGAAACTCGAGTAAACAAATTTTCCTAATCTTTCTGTTCAAGCGCCATCTAC	0.787 RPM ratio (pull-down/input)
GATGATTGTTCTCCCAGCTGATGAATTTGGCCATTCGAGTAAACAAATTTTCCTAATCTTTCTGTTCAAGCGCCATCTAC	0.926 RPM ratio (pull-down/input)
GATGATTGTTCTCCCAGCTGATGAATTAACCGTTTCGAGTAAACAAATTTTCCTAATCTTTCTGTTCAAGCGCCATCTAC	0.98 RPM ratio (pull-down/input)
GATGATTGTTCTCCCAGCTGATGAATTGTCGCAATCGAGTAAACAAATTTTCCTAATCTTTCTGTTCAAGCGCCATCTAC	1.36 RPM ratio (pull-down/input)

Sequence	binding signal
GATGATTGTTCTCCCAGCTGATGAATTCAGATCCTCGAGTAAACAAATTTTCCTAATCTTTCTGTTCAAGCGCCATCTAC	0.737 RPM ratio (pull-down/input)
GATGATTGTTCTCCCAGCTGATGAATTGCCTCCGTCGAGTAAACAAATTTTCCTAATCTTTCTGTTCAAGCGCCATCTAC	0.961 RPM ratio (pull-down/input)
GATGATTGTTCTCCCAGCTGATGAATTCCCTTCGTCGAGTAAACAAATTTTCCTAATCTTTCTGTTCAAGCGCCATCTAC	0.827 RPM ratio (pull-down/input)
GATGATTGTTCTCCCAGCTGATGAATTCGTCGTATCGAGTAAACAAATTTTCCTAATCTTTCTGTTCAAGCGCCATCTAC	0.972 RPM ratio (pull-down/input)
GATGATTGTTCTCCCAGCTGATGAATTTGGTGTTTCGAGTAAACAAATTTTCCTAATCTTTCTGTTCAAGCGCCATCTAC	1.12 RPM ratio (pull-down/input)
GATGATTGTTCTCCCAGCTGATGAATTTATAAGTTCGAGTAAACAAATTTTCCTAATCTTTCTGTTCAAGCGCCATCTAC	1.06 RPM ratio (pull-down/input)
GATGATTGTTCTCCCAGCTGATGAATTTGGCCGCTCGAGTAAACAAATTTTCCTAATCTTTCTGTTCAAGCGCCATCTAC	0.845 RPM ratio (pull-down/input)
GATGATTGTTCTCCCAGCTGATGAATTACGCATCTCGAGTAAACAAATTTTCCTAATCTTTCTGTTCAAGCGCCATCTAC	1.27 RPM ratio (pull-down/input)
GATGATTGTTCTCCCAGCTGATGAATTGCCCAGCTCGAGTAAACAAATTTTCCTAATCTTTCTGTTCAAGCGCCATCTAC	0.857 RPM ratio (pull-down/input)
GATGATTGTTCTCCCAGCTGATGAATTGTCCAGTTCGAGTAAACAAATTTTCCTAATCTTTCTGTTCAAGCGCCATCTAC	0.931 RPM ratio (pull-down/input)
GATGATTGTTCTCCCAGCTGATGAATTGGCCCGCTCGAGTAAACAAATTTTCCTAATCTTTCTGTTCAAGCGCCATCTAC	0.764 RPM ratio (pull-down/input)
GATGATTGTTCTCCCAGCTGATGAATTAGTTTCCTCGAGTAAACAAATTTTCCTAATCTTTCTGTTCAAGCGCCATCTAC	0.939 RPM ratio (pull-down/input)
GATGATTGTTCTCCCAGCTGATGAATTTCATGAATCGAGTAAACAAATTTTCCTAATCTTTCTGTTCAAGCGCCATCTAC	0.896 RPM ratio (pull-down/input)
GATGATTGTTCTCCCAGCTGATGAATTCCGTTGCTCGAGTAAACAAATTTTCCTAATCTTTCTGTTCAAGCGCCATCTAC	0.893 RPM ratio (pull-down/input)
GATGATTGTTCTCCCAGCTGATGAATTCTAACTATCGAGTAAACAAATTTTCCTAATCTTTCTGTTCAAGCGCCATCTAC	0.944 RPM ratio (pull-down/input)
GATGATTGTTCTCCCAGCTGATGAATTAAGATATTCGAGTAAACAAATTTTCCTAATCTTTCTGTTCAAGCGCCATCTAC	0.895 RPM ratio (pull-down/input)
GATGATTGTTCTCCCAGCTGATGAATTAGGTCAGTCGAGTAAACAAATTTTCCTAATCTTTCTGTTCAAGCGCCATCTAC	0.788 RPM ratio (pull-down/input)
GATGATTGTTCTCCCAGCTGATGAATTTCAGGACTCGAGTAAACAAATTTTCCTAATCTTTCTGTTCAAGCGCCATCTAC	0.771 RPM ratio (pull-down/input)
GATGATTGTTCTCCCAGCTGATGAATTAATATGGTCGAGTAAACAAATTTTCCTAATCTTTCTGTTCAAGCGCCATCTAC	0.915 RPM ratio (pull-down/input)
GATGATTGTTCTCCCAGCTGATGAATTGACGTGGTCGAGTAAACAAATTTTCCTAATCTTTCTGTTCAAGCGCCATCTAC	1.08 RPM ratio (pull-down/input)
